Read counts are not given, so values of variants with three or more changes are uncertain.
B1: CPEB3 Ribozyme (parent)
chain: UAACAGGGGGCCACAGCAGAAGCGUUCACGUCGCAGCCCCUGUCAGAUUCUGGUGAAUCUGCGAAUUCUGCUGUAUAUCUC

Variants of: B1
Experiment: self-cleavage, relative activity (ratio to wild type); higher = more cleavage; in vitro, sequencing
Procedure, shortened: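 Libraries of CPEB3 self-cleaving ribozyme mutants came from rounds of error-prone PCR and carried barcodes, which DNA sequencing matched to variants. In vitro transcription used T7 RNA polymerase at 37°C for 5 hours, with a further 15 min in DNase I before EDTA stopped the reaction; the ribozymes cleaved during both steps. The RNA was reverse transcribed with template switching and sequenced on Illumina. Relative activity is the cleaved/total read fraction of a variant divided by that of the unmutated ribozyme, averaged over three batches with at least 5 reads.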

Variant | self-cleavage
A45C G52A U58C U72G | 0.07
A45G U58C A64G | 0.17
U43A A56U G70A | 0.48
A45G C50U U54G | 0.37
A47G U48C A65G U67C | 0.25
U41G U67A U72C U78C | 0.18
U43A A45G A57G | 0.79
C44A U51C U54G A57G U72C | 0.28
A45U U60A U66C | 0.33
U43C A56G A77G | 0.27
A47U U49C A56G | 0.53
U43C U51A U54G G55U | 0.19
A45C G63A A65U U67C U72C | 0.17
U43A U48A U74A | 0.88
A45C U67A U78A U80A | 0.4
U43A A56U U78C | 0.62
A45G A47U U49C A57G U78C | 0.2
U43C U69C U74A U78C | 0.32
G46U A57G U80C | 0.21
A45G U54C U67C C71G U72G U76A | 0.07
G46C A47G C68A U72C | 0.11
U41C U60C G73A | 1.17
A45U A47G G63U U78C | 0.26
U43A U74A U76C | 1.04

Variant | self-cleavage
U43A U51C U78C | 1.12
U43C U54C U66A U69C | 0.09
U43C A57G U78C | 0.17
U43A U49C A64C | 0.15
A47G U60A A77G | 0.47
A47G G55U A75G | 0.48
U43A U78C C79G | 1.27
A47U U69A U74C A75U | 0.22
A45G U48A U67C | 0.12
U43C U58C U67A | 0.15
A45U U48C U58A U76G | 0.04
A45G U48C U58G U67C | 0.11
U43A U60C A77G U80A | 0.72
A45U U66C U67C | 0.08
A47G U54A U69A U80A | 0.24
U43C C62A G73A U76C | 0.2
A47G U66C U78C | 0.2
C44U U60C A64G | 0.11
A47U U49C U80C | 0.52
A47G U58A U72A | 0.4
U43C U58C U72C | 0.21
A45G U54A U72C | 1.21
G46A U49A U78A | 0.24
U43A C68U U69C U72C | 0.39

Variant | self-cleavage
A47G U49C G63U | 0.25
U43A A56U U69A | 0.3
U48A U51A U60C U78C | 0.14
C44A U48C U78A | 0.12
A47G U69G U80C | 0.81
A47G U54A G61A | 0.82
U41C U51C U74C | 1.17
U43A G46U A64G | 0.16
A45C G63U U78C | 0.21
U43C U54G U69C U72A | 0.08
A47G U58C U67C U72A A77G | 0.16
A45G U58A U76G | 0.27
U43C A45G G63U U72C | 0.46
U43A C50U U60C U78C | 0.3
U43C U69C U78A | 0.25
A45U U49C U78C | 0.12
U43A C44U A64G U69C U72A | 0.03
U43C U48C A56G | 0.14
U41G U51A A56U A57G U80C | 0.21
U43C U54C U67C | 0.27
U43A U54C U69A G73A | 0.39
U41C U54C U69A | 0.53
A45U U51A A65G U76C | 0.23
U43C U69A A77U U78A | 0.42

Variant | self-cleavage
U43C U48C A77G | 0.23
A47G U49C G53A | 0.44
U41C U67G A75U | 0.47
U41C U54A U67C A77G | 0.42
U43C A45G U76A A77C | 0.28
U41C U54C A57G U66A U78G | 0.21
A47G U69C G73A A77G | 1.09
A45U U66A C68A | 0.3
C44U U48C A56G | 0.18
A45U G63U U66C A75G | 0.1
A45G U60C C62U U78A | 0.08
U43A U48C U54A | 0.75
A45G A47G U66C | 0.12
A45G U54A C62A U69A | 0.35
A47G U49C U51C G52C A65G U72G | 0
U41G A47G U49A | 0.21
A47U A57G U60A G63A | 0.14
G42U U49C C62A U69C | 0.09
U41C U60C G63A U69A | 0.32
G42A A56U C71U | 0.06
U43A A45G U49C A57G U72A U78C | 0.3
U43C U51C A75U | 0.96
U43C U48C U60A | 0.15
A45U U49C A56U | 0.25

Variant | self-cleavage
A45G A47G A77G | 0.25
C44U A57U G70C U80C | 0.07
U41G U72A U78C | 0.11
A45G U49C U54G A57G G61U | 0
A45G U54A A56G U58C U67C U69C G70A | 0.17
A45U U54C U69A | 0.12
U43C U51C A65G | 0.79
A45G A47G A56G U60A U78C | 0.24
U43A A45U C50A A75G A77G | 0.4
A45G U49C A65G U76C | 0.14
A45G U72C U78C | 1.08
U41C U54C A57G A65U U66C C79U U80A | 0.11
U43C U54A A56U U66C | 0.08
U43C A64G U80C | 0.51
A47G U49C U54C A75G | 0.1
G42A U48C A57G C81U | 0.29
G42C A45G A47G | 0.12
U43G U48C U49G | 0.43
A45G U51C U76C C81U | 0.68
A45G U69C U72G | 0.44
A45U A56G G73A U80A | 0.76
A47U U54C U72A | 0.28
A45C U49C U54C U74C | 0.25
C44U A64U U67C | 0.33

Variant | self-cleavage
A45G A57G U67A | 0.29
A47G U54G U69A U76C | 0.2
A45U U72A U74C | 0.38
U43A A57G U78C | 0.62
A45C U48C U66C U67G | 0.15
A45G U48C A56G | 0.19
A45G U48C A56U | 0.18
U43C U67C A77G U78C | 0.11
A47G U49A U69A U80C | 0.1
A45C U51A U66C U67C | 0.15
U41C U58A U69A | 0.18
C44U C50A U54A A64G | 0.07
A45G U51G U54C U72C | 0.38
U43C U69A A75U | 0.17
U43G U58C A65G U76A | 0.08
U43C C50U U51C | 0.66
A47G U48C U60C | 0.27
U43A A56G A57G U66C U67C U76A | 0.21
A47U A56G U67C | 0.45
U41C U60A C71U | 0.43
A45G U54C A57G U80A | 0.4
U41G A47U A65G | 0.08
A45G A64U A77U | 0.16
A45U U51A G53A U58G | 0.06

Variant | self-cleavage
A45U A56U A57G U60C | 0.14
A47G U51C A56G A65G A77G | 0.28
U48A A57C G73A | 1.05
U43C U72C U80C | 0.72
U48A A57U U80C | 1.21
U43C U54C A56G | 0.17
A45C A56U A64U U72A | 0.16
A45U U69A A77U | 0.34
C44U U60C A64C U78C | 0.12
U41G A64G U78C | 0.14
A47G U66C U72C | 0.51
U41G U54C U69A | 0.1
U43C U51A A56U | 0.29
A47U U60C A65G | 0.14
A47G U60C A64U | 0.34
U43C A45G U72C U74C | 0.84
C44G A45U A47G U78A | 0.3
C44G A64G A65G | 0.18
U43C A47U A64G U76C | 0.16
A45G A57G U66C | 0.43
U43C A45U A56U | 0.26
G42U A56G U74C | 0.32
A45G U51C U66C A77G | 0.24
